In the supplement of paper PMC3334620:
Over roughly 33,000 sequences, “E-score (-0.5 to 0.5)” has its median near -0.035; the highest 2% begin near 0.35. The list shows a part of the results.

Target: T1, Pdr3 (UniProt P33200)
T1 sequence: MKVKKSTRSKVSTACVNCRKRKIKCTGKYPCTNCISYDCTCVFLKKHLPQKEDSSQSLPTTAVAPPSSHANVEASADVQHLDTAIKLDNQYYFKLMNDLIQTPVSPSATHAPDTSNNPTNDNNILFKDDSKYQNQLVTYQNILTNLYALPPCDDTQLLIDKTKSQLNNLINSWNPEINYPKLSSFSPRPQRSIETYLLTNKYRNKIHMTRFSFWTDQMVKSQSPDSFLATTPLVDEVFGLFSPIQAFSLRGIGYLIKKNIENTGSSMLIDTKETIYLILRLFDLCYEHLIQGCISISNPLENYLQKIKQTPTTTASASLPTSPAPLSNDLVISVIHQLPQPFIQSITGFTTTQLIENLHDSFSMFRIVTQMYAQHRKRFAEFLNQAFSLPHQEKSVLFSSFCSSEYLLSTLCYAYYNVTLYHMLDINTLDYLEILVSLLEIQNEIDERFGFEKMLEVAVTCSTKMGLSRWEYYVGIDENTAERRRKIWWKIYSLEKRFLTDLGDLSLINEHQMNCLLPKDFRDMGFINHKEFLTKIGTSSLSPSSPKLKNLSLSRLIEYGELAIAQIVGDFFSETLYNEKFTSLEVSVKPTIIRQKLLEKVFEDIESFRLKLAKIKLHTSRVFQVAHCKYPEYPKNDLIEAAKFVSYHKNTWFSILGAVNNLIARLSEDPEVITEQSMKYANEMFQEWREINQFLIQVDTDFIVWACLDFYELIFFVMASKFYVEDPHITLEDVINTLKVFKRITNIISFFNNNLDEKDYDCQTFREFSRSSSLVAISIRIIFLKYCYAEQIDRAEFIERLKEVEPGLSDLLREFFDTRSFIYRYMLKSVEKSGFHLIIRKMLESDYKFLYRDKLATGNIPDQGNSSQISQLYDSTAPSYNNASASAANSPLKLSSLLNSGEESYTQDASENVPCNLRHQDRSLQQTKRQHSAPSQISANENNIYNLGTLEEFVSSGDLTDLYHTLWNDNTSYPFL
Assay: PBM E-score (8-mer binding enrichment) (E-score (-0.5 to 0.5)); higher = stronger / more preferred TF binding; most listed sequences are background and not binding sites
Details: protein concentration: 200 nM; construct: GST-full length
Procedure, shortened: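 Each ungapped eight-base word and its reverse complement, pooled, received an E-score from the Universal PBM Analysis Suite. Underlying scans, normalised with masliner, recorded fluorescent anti-GST bound to GST-tagged yeast transcription factors. These were applied at about 100-200 nM to universal all-10-mer Agilent arrays double-stranded by primer extension.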

| Sequence | PBM E-score |
| --- | --- |
| AGTATTTC | 0.155 |
| GATTCTCC | 0.141 |
| TATGTGGA | 0.0477 |
| ATGACCGG | 0.0923 |
| CCCCTGAC | 0.0303 |
| CAGTGGTA | -0.213 |
| CCCCGAAC | 0.129 |
| AAGACAGT | -0.024 |
| AGTAGAAG | -0.189 |
| ACAGGGGC | -0.122 |
| ACTAGGAT | -0.196 |
| CCCGTACC | 0.153 |
| GCACCCAC | 0.0912 |
| AATCTGGG | -0.0768 |
| ATAAGCGG | -0.0222 |
| AAGGGGAA | -0.156 |
| AGCTAGGA | -0.0823 |
| AACAGACT | -0.131 |
| AGCAGCCT | -0.258 |
| AAATTTCG | -0.089 |
| CCGTAAAA | 0.172 |
| GGGTAAAA | 0.173 |
| GACGGAAA | 0.43 |
| CTTGCCCA | -0.156 |
| AGTCAGTG | -0.05 |

| Sequence | PBM E-score |
| --- | --- |
| AGGAAACC | 0.00802 |
| ACACGGGG | 0.147 |
| CACCAACG | -0.0913 |
| AAAGCTAC | -0.177 |
| CTCCTCTA | -0.354 |
| TCGTCTCA | -0.0562 |
| GCATTCGA | 0.132 |
| CAGCAAAA | -0.0582 |
| CCCCCGCG | 0.349 |
| CTCTTACC | 0.217 |
| AACGTTTC | -0.179 |
| CAGTAAAG | -0.156 |
| GGACGACA | 0.127 |
| CGCAGAAA | -0.12 |
| GGTAGTGA | 0.0142 |
| AATGAGAG | -0.122 |
| AACACTGT | -0.0501 |
| ATTGGCCC | -0.274 |
| AACTTAAA | -0.233 |
| ATACTACA | 0.186 |
| CACCAGCG | 0.0339 |
| AAAGTTTA | 0.0872 |
| TAATTACA | -0.0755 |
| CGGGCGCA | 0.143 |
| GATGAAAC | 0.0428 |

| Sequence | PBM E-score |
| --- | --- |
| GCGTCACC | -0.185 |
| CAGAAACG | 0.0256 |
| CTGAAATA | -0.0601 |
| AACCTTCC | 0.107 |
| ATCGAAAA | -0.0829 |
| ATCCAAAA | -0.00928 |
| GCTTCAGA | -0.181 |
| CCATAAGA | -0.0239 |
| CTCATGAG | -0.203 |
| GAACTAGC | -0.00564 |
| AAGGCCTG | -0.308 |
| AGCGGGGC | 0.111 |
| ACCATACG | -0.0138 |
| AGCGAATG | -0.14 |
| GGTTTACA | 0.0275 |
| AAACATGC | -0.139 |
| AGTAACGC | -0.124 |
| ATTAGCTG | -0.116 |
| AATCGGGT | 0.266 |
| ACAACACC | -0.0128 |
| CTTAAAAC | 0.0851 |
| CATTAAAG | -0.125 |
| CGCCGGCG | 0.452 |
| CGCTAGAC | -0.327 |
| ACATAGGC | -0.05 |

| Sequence | PBM E-score |
| --- | --- |
| CCGATGTA | 0.0383 |
| CTTCTACC | -0.195 |
| ATAGCCAC | -0.0283 |
| TATAGAAA | -0.16 |
| AAAGTACC | -0.00215 |
| AGACCGTC | -0.059 |
| CCTCCGCG | 0.445 |
| GTTCGCAA | -0.0113 |
| AATATCAG | 0.0083 |
| ACTATAGT | -0.0368 |
| CTGCGGGC | 0.218 |
| CTGCGGCC | 0.196 |
| GAAGTACC | 0.0442 |
| GTCTCGCA | -0.137 |
| GGCCCCCC | -0.0393 |
| GAAATAGA | 0.0892 |
| CAGTCGTA | -0.136 |
| GCAGCGCA | -0.0518 |
| CTTTATCA | -0.281 |
| ATACAAGG | -0.0921 |
| ATGCATCA | 0.107 |
| AAACGCCC | 0.135 |
| CACAACTC | 0.0536 |
| CAAACAAG | -0.0108 |
| GCATCTCA | -0.155 |

| Sequence | PBM E-score |
| --- | --- |
| AATGTCAG | -0.0916 |
| CAAAGATC | -0.0762 |
| ACTCTCTA | -0.31 |
| GCCGACGC | 0.178 |
| CCTAGGCC | 6e-05 |
| AGATTCAG | -0.0749 |
| CAAAGGGG | -0.1 |
| AGCCAGCG | -0.019 |
| CGGAGTGA | 0.285 |
| ACTCTCCT | -0.167 |
| ACAGCATA | 0.0179 |
| AGTTTACC | -0.0725 |
| ACCGGCAA | 0.185 |
| GACGACAC | -0.042 |
| CAGATGAA | -0.128 |
| AACAGCCG | -0.0154 |
| ATGGTTGC | -0.105 |
| ATGACGTA | -0.262 |
| CAAGAACG | -0.0114 |
| ATGTTTTC | 0.0627 |
| ATCAAATA | 0.0461 |
| GATGTGCA | -0.116 |
| GCAGCGAA | -0.146 |
| ATTCTAGG | -0.248 |
| AGGAACAG | -0.195 |

| Sequence | PBM E-score |
| --- | --- |
| CTACAGAC | -0.198 |
| ATCCTAAT | -0.00206 |
| ACCCAGCA | -0.108 |
| ATCATCTA | -0.0371 |
| CCTTGTTC | -0.114 |
| CACCCAGA | -0.215 |
| CATTGGCG | -0.189 |
| ATAGTGAC | -0.0769 |
| CGCCGCGC | 0.309 |
| TATCGCAA | -0.0243 |
| CAGAAGCC | -0.0706 |
| GAGTGAAC | 0.0586 |
| GGAGACAC | 0.0538 |
| CACTATAC | -0.0694 |
| AATGTGTA | -0.212 |
| AGGGACGG | 0.0347 |
| ATACCTGC | -0.205 |
| ATCGTAAT | 0.0156 |
| AGCTAATG | -0.241 |
| CCATTCAA | 0.0418 |
| CGAGACAA | -0.0858 |
| ACTTAACA | -0.208 |
| AGCTCACG | -0.101 |
| ACAAAGCA | 0.0388 |
| CGCTACAC | -0.0343 |

| Sequence | PBM E-score |
| --- | --- |
| AGCAGTAA | -0.071 |
| AGTCAAAT | -0.196 |
| ATGATAGG | -0.0232 |
| AGGGTCCA | -0.0256 |
| GCATACGC | -0.0534 |
| CCTCGCAA | -0.16 |
| GCGCGCCA | 0.253 |
| ACATCTAA | -0.142 |
| AACCCTCG | 0.0474 |
| GTGGTTTA | -0.0524 |
| CAGAGCGA | 0.0283 |
| TTATTCAA | -0.255 |
| AGGGGCGA | -0.0104 |
| CGACCCAA | 0.0335 |
| GAATTGTC | 0.00563 |
| ATCTGAGG | -0.066 |
| CTCCCGCC | 0.118 |
| AGCAGAGG | -0.26 |
| ACGTTCTC | -0.00453 |
| ATACCCGA | 0.175 |
| AGAGTAGG | -0.0905 |
| ACTCTTGC | -0.0726 |
